{"source": "the supplement of paper PMC7826260", "note": "This is one part of the list. The data describe in vitro nicking of single-stranded DNA by Rep domains at 3 µM enzyme and 37 °C for 1 h; the strands have 90 letters, of which the middle is given. The score is log2 (uncut reads / reads without enzyme); the lower, the more was cut; hits are not called. Reads are scaled to the total; uncut strands gain when others are lost, and binding without cutting may add a little.", "data": [{"system": "T1, Rep nickase domain of tomato golden mosaic virus", "T1 sequence (residues 1-124 of Rep, tag left off)": "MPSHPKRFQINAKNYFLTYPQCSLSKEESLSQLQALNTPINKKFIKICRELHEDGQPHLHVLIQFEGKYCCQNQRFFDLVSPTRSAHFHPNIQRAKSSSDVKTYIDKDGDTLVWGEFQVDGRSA", "experiment": "uncleaved DNA left, log2 of reads against the no-enzyme library (log2 ratio); higher = less cleavage (more negative = more Rep cleavage of the k-mer); sequences stand for … in CTCGTCCG…ACCGGAGA", "protocol": "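A pool of 90-nt single-stranded DNAs with seven random bases just before the constant AC of the nick site (name = the seven bases) was cut by 3 µM recombinant His6-SUMO-tagged Rep nickase domain (300 nM DNA, 50 mM HEPES pH 8.0, 50 mM NaCl, 1 mM MnCl2, 1 h, 37 °C, three replicates). Uncut DNA was amplified and sequenced.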", "values": [{"sequence": "CTAACTA", "uncleaved DNA left (log2)": 0.0241}, {"sequence": "ATCTTGA", "uncleaved DNA left (log2)": -0.0541}, {"sequence": "TCGCGTG", "uncleaved DNA left (log2)": 0.0619}, {"sequence": "CGCCCTC", "uncleaved DNA left (log2)": -0.0707}, {"sequence": "CCGACCC", "uncleaved DNA left (log2)": -0.123}, {"sequence": "TCACTGC", "uncleaved DNA left (log2)": -0.0536}, {"sequence": "ATCCGCG", "uncleaved DNA left (log2)": -0.187}, {"sequence": "TAGCCCA", "uncleaved DNA left (log2)": -0.0421}, {"sequence": "CGGTAAT", "uncleaved DNA left (log2)": -0.0566}, {"sequence": "TGCCACG", "uncleaved DNA left (log2)": -0.131}, {"sequence": "TATCGAT", "uncleaved DNA left (log2)": -0.0696}, {"sequence": "TGCGAAC", "uncleaved DNA left (log2)": 0.0598}, {"sequence": "ATGTGGA", "uncleaved DNA left (log2)": 0.0932}, {"sequence": "TTCAAAG", "uncleaved DNA left (log2)": -0.00722}, {"sequence": "CTGAACT", "uncleaved DNA left (log2)": 0.0335}, {"sequence": "TATCTGT", "uncleaved DNA left (log2)": -0.0918}, {"sequence": "CGCCGAC", "uncleaved DNA left (log2)": -0.0838}, {"sequence": "CAGAAAA", "uncleaved DNA left (log2)": 0.024}, {"sequence": "ATCAAAC", "uncleaved DNA left (log2)": 0.0478}, {"sequence": "GGTGTAA", "uncleaved DNA left (log2)": 0.146}, {"sequence": "CGGTGGC", "uncleaved DNA left (log2)": -0.137}, {"sequence": "ATAATGC", "uncleaved DNA left (log2)": -0.0527}, {"sequence": "GCTCACA", "uncleaved DNA left (log2)": 0.174}, {"sequence": "TGTGTGT", "uncleaved DNA left (log2)": -0.00268}, {"sequence": "GGAGGCA", "uncleaved DNA left (log2)": 0.0179}, {"sequence": "AGATTTA", "uncleaved DNA left (log2)": 0.0368}, {"sequence": "CCAACTA", "uncleaved DNA left (log2)": 0.00521}, {"sequence": "GGATACA", "uncleaved DNA left (log2)": -0.0289}, {"sequence": "CAGTATC", "uncleaved DNA left (log2)": -0.137}, {"sequence": "TACCTGT", "uncleaved DNA left (log2)": -0.187}, {"sequence": "GATCATG", "uncleaved DNA left (log2)": -0.117}, {"sequence": "TCGCGAC", "uncleaved DNA left (log2)": -0.0762}, {"sequence": "CGTGAGG", "uncleaved DNA left (log2)": 0.163}, {"sequence": "CCTGCAG", "uncleaved DNA left (log2)": -0.225}, {"sequence": "GGATATC", "uncleaved DNA left (log2)": 0.0632}, {"sequence": "TGTTATC", "uncleaved DNA left (log2)": -0.0202}, {"sequence": "GGACATC", "uncleaved DNA left (log2)": -0.0422}, {"sequence": "TGGGAAA", "uncleaved DNA left (log2)": -0.0253}, {"sequence": "TCGTAAA", "uncleaved DNA left (log2)": 0.0646}, {"sequence": "GTGTCGT", "uncleaved DNA left (log2)": 0.0179}]}]}
